Experimental data: PMC6957217
These are yes or no findings as the source states them, for the method shown. Some binding calls cover weakened binding; strength is not graded here.

The chains behind the UniProt entries cited, without tags or fusion partners. Where a name states a change or a piece, a line headed by the entry shows the natural chain unless it says otherwise.
UniProt P03744: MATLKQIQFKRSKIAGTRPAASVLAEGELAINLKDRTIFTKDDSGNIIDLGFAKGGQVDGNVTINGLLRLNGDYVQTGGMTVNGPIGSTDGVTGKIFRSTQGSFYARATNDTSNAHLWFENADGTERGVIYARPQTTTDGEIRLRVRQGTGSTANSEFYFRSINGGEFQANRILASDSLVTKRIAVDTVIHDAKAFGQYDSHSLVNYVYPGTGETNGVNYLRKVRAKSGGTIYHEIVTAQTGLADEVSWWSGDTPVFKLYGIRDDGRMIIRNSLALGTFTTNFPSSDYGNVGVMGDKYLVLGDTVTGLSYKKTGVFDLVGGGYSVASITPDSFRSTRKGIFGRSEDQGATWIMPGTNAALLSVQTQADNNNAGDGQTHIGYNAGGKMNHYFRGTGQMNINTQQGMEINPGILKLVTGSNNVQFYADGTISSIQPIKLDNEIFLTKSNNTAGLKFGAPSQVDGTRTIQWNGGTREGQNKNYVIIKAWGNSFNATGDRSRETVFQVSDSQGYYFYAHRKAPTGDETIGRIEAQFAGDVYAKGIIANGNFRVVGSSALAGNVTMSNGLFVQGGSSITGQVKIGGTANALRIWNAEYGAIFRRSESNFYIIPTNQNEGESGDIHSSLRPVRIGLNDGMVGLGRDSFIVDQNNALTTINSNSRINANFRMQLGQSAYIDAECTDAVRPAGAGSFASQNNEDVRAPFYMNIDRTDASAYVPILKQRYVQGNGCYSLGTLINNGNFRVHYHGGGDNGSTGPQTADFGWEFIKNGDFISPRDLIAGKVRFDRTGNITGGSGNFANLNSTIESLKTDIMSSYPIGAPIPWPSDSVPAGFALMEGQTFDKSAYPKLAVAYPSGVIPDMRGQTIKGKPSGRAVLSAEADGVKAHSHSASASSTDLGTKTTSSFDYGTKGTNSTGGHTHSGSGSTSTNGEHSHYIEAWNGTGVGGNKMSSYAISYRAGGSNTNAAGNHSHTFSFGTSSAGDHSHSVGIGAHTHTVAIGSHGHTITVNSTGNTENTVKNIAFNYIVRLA

Molecular target: T1, OmpC on OmpC^+ E. coli (K12 strain) cells (E. coli K12 (endogenous in E. coli K12 cells)) (UniProt P06996)
T1 sequence: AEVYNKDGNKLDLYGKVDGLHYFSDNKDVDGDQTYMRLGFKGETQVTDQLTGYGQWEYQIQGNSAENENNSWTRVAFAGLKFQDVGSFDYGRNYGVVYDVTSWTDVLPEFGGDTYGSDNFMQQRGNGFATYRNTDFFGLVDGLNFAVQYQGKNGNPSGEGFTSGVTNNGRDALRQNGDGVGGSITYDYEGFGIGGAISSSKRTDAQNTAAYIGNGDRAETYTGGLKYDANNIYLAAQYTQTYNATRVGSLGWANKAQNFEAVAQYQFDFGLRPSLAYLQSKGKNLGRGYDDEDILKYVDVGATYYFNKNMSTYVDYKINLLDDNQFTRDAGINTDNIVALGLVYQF
Test: binding to whole E. coli cells, pelleting and Western blot; about 10^8 E. coli cells in PBS, about 3 x 10^5 gp37 molecules per cell, 37 °C 2 hr, washed twice, bound gp37 detected with anti-histag antibodies; also at several protein concentrations and with increasing purified E. coli B LPS; only the binder purified

binding, binds:
gp37 needle (799–1026) G938A (from UniProt P03744 799-1026) (domain or fragment)
gp37 needle (799–1026) N937A (from UniProt P03744 799-1026) (domain or fragment)
Phage T4 LTF needle (gp37; amino acids 799–1026), wild type (from UniProt P03744 799-1026) (domain or fragment)
